Source: paper PMC6664820, “Novel natural and synthetic inhibitors of solute carriers SGLT1 and SGLT2” (Pharmacology Research & Perspectives, 2019)
Among all 1,900 compounds or so, about 40 (2%) showed an effect of 50% or more. Some of the results follow.

The molecules below were run against human SGLT1 (hSGLT1) (human, UniProt P13866) (assay: primary screen, percent of control activity; higher = less effect of the substance). Details: 50 µM.
Parameters: single well
Outline: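 Single-point screen at 50 µmol/L in CHO-hSGLT1 cells, with 160 µmol/L 1-NBD-glucose in glucose-free DMEM for 90 min at 37°C. Fluorescence from isopropanol extracts was calibrated, and CHO wild-type uptake was subtracted. Data are percent of uptake without compound.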

human SGLT1 (hSGLT1), sequence (P13866 whole entry, looked up): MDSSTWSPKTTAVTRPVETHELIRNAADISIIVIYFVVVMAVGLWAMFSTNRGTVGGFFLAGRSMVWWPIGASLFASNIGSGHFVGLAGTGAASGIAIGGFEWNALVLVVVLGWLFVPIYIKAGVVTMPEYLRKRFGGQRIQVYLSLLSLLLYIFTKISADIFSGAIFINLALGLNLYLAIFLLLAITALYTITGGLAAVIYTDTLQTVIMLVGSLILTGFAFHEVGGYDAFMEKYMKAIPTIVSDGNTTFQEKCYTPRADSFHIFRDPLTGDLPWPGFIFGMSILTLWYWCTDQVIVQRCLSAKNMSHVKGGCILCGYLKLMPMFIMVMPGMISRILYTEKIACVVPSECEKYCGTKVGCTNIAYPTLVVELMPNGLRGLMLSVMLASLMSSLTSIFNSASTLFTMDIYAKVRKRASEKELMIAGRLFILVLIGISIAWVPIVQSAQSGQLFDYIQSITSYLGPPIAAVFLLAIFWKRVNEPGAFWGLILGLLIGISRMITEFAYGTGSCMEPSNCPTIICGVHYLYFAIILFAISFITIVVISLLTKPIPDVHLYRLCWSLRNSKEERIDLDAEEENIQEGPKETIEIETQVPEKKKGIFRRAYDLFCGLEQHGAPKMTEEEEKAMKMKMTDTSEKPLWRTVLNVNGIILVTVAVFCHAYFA

Going from `CC1=C(/C=C/C(C)=C/C=C/C(C)=C/C=C/C=C(C)/C=C/C=C(C)/C=C/C(=O)[C@]2(C)C[C@@H](O)CC2(C)C)C(C)(C)C[C@H](O)C1` to `CC1=C(/C=C/C(C)=C/C=C/C(C)=C/C=C/C=C(C)/C=C/C=C(C)/C=C/C2=C(C)C(=O)C(O)CC2(C)C)C(C)(C)CC(O)C1=O` (centres unmarked), the “NORMALIZED SGLT1 ACTIVITY (%)” value falls from 103% to 101%.

First: CC1=C(/C=C/C(C)=C/C=C/C(C)=C/CO)C(C)(C)CCC1
Second: CN1C(C)(C)CCCC1(C)C.O=C(O)C(O)C(O)C(=O)O
The “NORMALIZED SGLT1 ACTIVITY (%)” value of the first is higher: 140% for the first, 97% for the second.

First: CC(C)[C@H](N)C(=O)OCCOCn1cnc2c(=O)[nH]c(N)nc21.Cl
Second: CCCn1cnc2c1c(=O)n(CCCCC(C)=O)c(=O)n2C
The “NORMALIZED SGLT1 ACTIVITY (%)” value of the first is higher: 160% for the first, 121% for the second.

First: Cl.OC1CCCCC1N1CCC(c2ccccc2)CC1 (centres unmarked)
Second: CC(C)[C@@H]1CC[C@@H](C)C[C@H]1OC(=O)c1ccccc1
The “NORMALIZED SGLT1 ACTIVITY (%)” value of the first is lower: 67% for the first, 122% for the second.

Going from `CC1=C(C(=O)O)N2C(=O)[C@@H](NC(=O)[C@H](N)c3ccc(O)cc3)[C@H]2SC1` to `COc1ccc2c(c1)c(CC(=O)O)c(C)n2C(=O)c1ccc(Cl)cc1`, the “NORMALIZED SGLT1 ACTIVITY (%)” value rises from 89% to 259%.

First: OC[C@H]1O[C@@H](O[C@H]2[C@H](O)[C@@H](O)[C@@H](O)O[C@@H]2CO)[C@H](O)[C@@H](O)[C@@H]1O
Second: CN[C@@H]1[C@@H](O)C(OC2[C@@H](N)C[C@@H](N)[C@H](O[C@H]3O[C@H](C(C)O)[C@@H](O)[C@H](O)[C@H]3N)[C@H]2O)OC[C@]1(C)O.O=S(=O)(O)O.O=S(=O)(O)O (some centres unmarked)
The “NORMALIZED SGLT1 ACTIVITY (%)” value of the first is lower: 71% for the first, 82% for the second.

Compared with `c1ccc(N=Nc2ccccc2)cc1`, `Clc1ccccc1C(c1ccccc1)(c1ccccc1)n1ccnc1` is lower in “NORMALIZED SGLT1 ACTIVITY (%)” value: 97% for the first, 92% for the second.

First: Cl.Cl.NCCc1c[nH]cn1
Second: Nc1nccs1
The “NORMALIZED SGLT1 ACTIVITY (%)” value of the first is higher: 140% for the first, 105% for the second.

First: C=CCc1cc(OC)c2c(c1OC)OCO2
Second: COc1ccnc(CS(=O)c2nc3cc(OC(F)F)ccc3[nH]2)c1OC (centres unmarked)
The “NORMALIZED SGLT1 ACTIVITY (%)” value of the first is lower: 104% for the first, 196% for the second.

First: CCCCCN(CCCCC)C(=O)C(CCC(=O)[O-])NC(=O)c1ccc(Cl)c(Cl)c1.[Na+] (centres unmarked)
Second: CCCCCCC(C)OC(=O)COc1ccc(Cl)cc1Cl (centres unmarked)
The “NORMALIZED SGLT1 ACTIVITY (%)” value of the first is higher: 314% for the first, 112% for the second.

Compared with `C[C@@H]1CC2C3C[C@H](F)C4=CC(=O)C=C[C@]4(C)[C@@]3(F)[C@@H](O)C[C@]2(C)[C@@]1(O)C(=O)COC(=O)C(C)(C)C` (some centres unmarked), `CC(=O)OCC(=O)[C@@]1(O)CCC2C3CCC4=CC(=O)CC[C@]4(C)C3[C@@H](O)C[C@@]21C` (some centres unmarked) is lower in “NORMALIZED SGLT1 ACTIVITY (%)” value: 120% for the first, 105% for the second.

First: CC1(C)C(=O)CC[C@@]2(C)C1C[C@@H](O)[C@@]1(C)C3=CC(=O)O[C@@H](c4ccoc4)[C@]3(C)CCC21 (some centres unmarked)
Second: CC(=O)O[C@H]1C[C@@H](OC(C)=O)C(C)(C)C2C[C@@H](OC(C)=O)[C@]3(C)C(CC[C@@]4(C)[C@H](c5ccoc5)C(=O)[C@H]5O[C@]543)[C@]21C (some centres unmarked)
The “NORMALIZED SGLT1 ACTIVITY (%)” value of the first is higher: 210% for the first, 129% for the second.

Going from `CCCCNc1ccc(C(=O)OCCN(C)C)cc1.Cl` to `CCN(CC)CCNC(=O)c1ccc(NC(C)=O)cc1.Cl`, the “NORMALIZED SGLT1 ACTIVITY (%)” value falls from 135% to 115%.

First: CCCN(CCC)CCc1cccc2c1CC(=O)N2.Cl
Second: CCCCOc1ccc(CC(=O)NO)cc1
The “NORMALIZED SGLT1 ACTIVITY (%)” value of the first is lower: 148% for the first, 162% for the second.

Compared with `CC(=O)Nc1ccc(OCC(O)CNC(C)C)cc1` (centres unmarked), `COc1ccccc1OCC(O)COC(N)=O` (centres unmarked) is higher in “NORMALIZED SGLT1 ACTIVITY (%)” value: 105% for the first, 106% for the second.

Compared with `CN1CCN(C2=Nc3cc(Cl)ccc3Nc3ccccc32)CC1`, `Cc1ccc(-c2nc3ccc(C)cn3c2CC(=O)N(C)C)cc1` is lower in “NORMALIZED SGLT1 ACTIVITY (%)” value: 152% for the first, 112% for the second.

Compared with `N[C@H](CO)Cc1ccccc1`, `CC(C)[N+](C)(CCOC(=O)C1c2ccccc2Oc2ccccc21)C(C)C.[Br-]` is higher in “NORMALIZED SGLT1 ACTIVITY (%)” value: 96% for the first, 111% for the second.

Going from `NC(=O)NO` to `CCOC(=O)c1c(C)cc(O)c(C)c1O`, the “NORMALIZED SGLT1 ACTIVITY (%)” value rises from 97% to 122%.

Compared with `Cc1cc(O)c2c(c1)C(=O)c1cc(O)cc(O)c1C2=O`, `O=[N+]([O-])c1cc([As](=O)(O)O)ccc1O` is lower in “NORMALIZED SGLT1 ACTIVITY (%)” value: 118% for the first, 103% for the second.

First: C=C1CCC(=O)C(C)CCC2C1CC2(C)C (centres unmarked)
Second: CC(C(=O)O)[C@H]1CCC2C3CC=C4C[C@@H](O)CC[C@]4(C)C3CC[C@@]21C (some centres unmarked)
The “NORMALIZED SGLT1 ACTIVITY (%)” value of the first is lower: 75% for the first, 140% for the second.

First: C[N+](C)(C)CCOP(=O)([O-])OP(=O)(O)OC[C@H]1O[C@@H](n2ccc(N)nc2=O)[C@H](O)[C@@H]1O
Second: CC(=O)O[C@H]1CC[C@@]2(C)C(CC[C@]3(C)C2C(=O)C=C2C4[C@@H](C)[C@H](C)CC[C@]4(C(=O)O)CC[C@]23C)C1(C)C (some centres unmarked)
The “NORMALIZED SGLT1 ACTIVITY (%)” value of the first is higher: 90% for the first, 37% for the second.

Compared with `CC1(C)O[C@@H]2[C@@H](CO[C@@]3(COS(N)(=O)=O)OC(C)(C)O[C@@H]23)O1`, `COc1cc2c(cc1O)CCNC2C` (centres unmarked) is higher in “NORMALIZED SGLT1 ACTIVITY (%)” value: 106% for the first, 142% for the second.
